Source: paper PMC6212790
The list shows a part of the results. At the low end of the ranking, values are background and their order means little.

molecular target: T1, GST-Rok (full length) (UniProt O34857); assay: protein binding microarray; conditions: Rok is a gene silencer of Bacillus subtilis; high values mean tight binding; most listed sequences are background and not binding sites; double strand, one strand shown;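 further: rank score from −0.5 (least bound) to 0.5 (best bound)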
T1 sequence: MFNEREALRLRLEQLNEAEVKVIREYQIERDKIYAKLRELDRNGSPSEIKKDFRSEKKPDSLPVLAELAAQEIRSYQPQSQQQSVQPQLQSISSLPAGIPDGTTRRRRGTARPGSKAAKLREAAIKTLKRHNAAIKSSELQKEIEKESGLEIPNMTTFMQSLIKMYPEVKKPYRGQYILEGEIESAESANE

Sequence	binding signal
AAAACCAC	-0.0525 E-score
GAGGGTCA	-0.214 E-score
ACTTTAGC	-0.0146 E-score
CAGGAGTA	0.0478 E-score
ACACGGCC	-0.0951 E-score
CTTCACCA	-0.0521 E-score
GAATGACA	-0.0175 E-score
CCCTTCCG	-0.327 E-score
ACCGCGAC	-0.17 E-score
GTACGTTA	0.172 E-score
ACGTAGAT	0.222 E-score
AAGTGCAA	-0.0282 E-score
CATATACC	0.259 E-score
AGGTCAAC	-0.126 E-score
CGAACCTC	-0.283 E-score
CGTCAGAG	-0.137 E-score
CATCCAGA	-0.144 E-score
GAATGTTA	0.193 E-score
GATCGTAA	0.0795 E-score
ATGACTTA	0.0476 E-score
ATGGAAGG	-0.164 E-score
ATTCTACA	0.42 E-score
AGCAGGCT	-0.201 E-score
TGAACGAA	-0.0172 E-score
AAGACGCT	-0.222 E-score

Sequence	binding signal
AAACTTGT	0.115 E-score
GCGTCTAA	-0.0399 E-score
ATGAGTTA	0.2 E-score
ATGTTAAC	0.306 E-score
CTACGGAG	-0.00543 E-score
CGCAGATC	-0.0229 E-score
ATTCACCA	0.141 E-score
AGCGGCAG	-0.241 E-score
ATAGACCG	-0.0219 E-score
TCAGATCA	-0.0715 E-score
TACCACAA	0.181 E-score
TAACCGCA	0.0326 E-score
GCGAGTAC	-0.0426 E-score
GGGTGCTA	-0.128 E-score
ACCTCCTG	-0.317 E-score
AGACCGCA	-0.00565 E-score
GTGTAGGA	0.198 E-score
CCAGTACG	-0.124 E-score
GTCAGAAC	0.172 E-score
GACATCCC	-0.312 E-score
AGCGTTGA	-0.216 E-score
GTATGGAA	0.0118 E-score
AATTCGCA	0.18 E-score
GCGAAAGC	-0.317 E-score
CACTGTGA	0.129 E-score

Sequence	binding signal
AGCTTAAG	-0.121 E-score
AGGCCTAG	-0.0148 E-score
ATCCCGAG	-0.157 E-score
ATACCACG	0.232 E-score
CCGTGGTC	-0.181 E-score
ACCAAAAG	-0.115 E-score
ACATGTCG	0.0488 E-score
AATCCAGT	0.114 E-score
ACACTTTC	0.106 E-score
AAAAAGCG	-0.126 E-score
GGGAGCCC	-0.403 E-score
AAGTGGCA	0.0388 E-score
AAGTAGTG	0.126 E-score
ACGGGAGC	-0.364 E-score
ATGTTCGA	0.105 E-score
CACCGGAA	0.00917 E-score
ATAGGTTC	0.155 E-score
CTGTCGTA	0.0464 E-score
ACCCCATC	-0.177 E-score
ACCTCCAA	-0.0283 E-score
GCGGAGCC	-0.201 E-score
AGGCCATA	-0.25 E-score
CACTAAGA	-0.0489 E-score
GTAAAGGA	-0.155 E-score
ATAAGAAG	0.0899 E-score

Sequence	binding signal
GCGATCGA	0.0346 E-score
CACGGTAC	0.135 E-score
AAAGATCG	-0.00269 E-score
ATACAATA	0.359 E-score
GAGGTAGA	0.296 E-score
GACACGCC	-0.111 E-score
CCACGAAG	-0.16 E-score
CAACCTCG	-0.0289 E-score
CGCCCACC	-0.362 E-score
CAGCGAAG	-0.0825 E-score
ACTGCACT	0.089 E-score
AGGATACG	0.00378 E-score
CATGTCTA	-0.0151 E-score
GTTGAGCA	-0.121 E-score
CGAGAGAC	-0.0317 E-score
AGTACACT	0.164 E-score
GATGCATA	0.164 E-score
CTTTTGGA	-0.106 E-score
CAATGCAA	-0.0262 E-score
AGTTCTCA	0.015 E-score
CGCAGCTA	-0.0732 E-score
CGGGGCAC	-0.224 E-score
CAACTTGC	0.141 E-score
CTAGTCGC	0.0265 E-score
GAAGTAGA	0.167 E-score

Sequence	binding signal
GAGCAACA	-0.0374 E-score
GGCCTATA	0.0364 E-score
GAGCTTCA	-0.242 E-score
GGAGGGCA	-0.377 E-score
CCGTGTGA	-0.134 E-score
GCGAGACC	-0.186 E-score
ACTTCCAC	0.0279 E-score
GAACAATA	0.0553 E-score
ATATGACG	0.182 E-score
CTACGCCA	0.00514 E-score
AAGATAGC	0.0426 E-score
GTAGTAAC	0.321 E-score
TATATCCA	0.24 E-score
ACGATCAG	-0.146 E-score
ACACAAGG	-0.226 E-score
GTGTCGAA	0.0353 E-score
ATTTAACC	0.0809 E-score
GCTACGTA	0.298 E-score
CATGGCGA	-0.0801 E-score
ACCTACGC	-0.112 E-score
CCCATTCG	-0.187 E-score
AAGCACTG	-0.261 E-score
CCCCATTA	-0.239 E-score
AGCTTTGA	0.079 E-score
CAGCTATA	0.275 E-score

Sequence	binding signal
GAATACAA	0.206 E-score
AACGAAAC	0.121 E-score
CCCCAAAA	-0.284 E-score
ACCAACAT	0.137 E-score
AGCTTACA	0.0835 E-score
AACGATTA	-0.086 E-score
CTCCTTTC	-0.244 E-score
ACTAACGA	0.182 E-score
CGCGCCAC	-0.253 E-score
AACGCAGG	-0.155 E-score
ATACCCTC	-0.132 E-score
CCCTATCG	0.109 E-score
GGCAGCAA	-0.0478 E-score
GTATAAGA	0.199 E-score
CGAGCAAA	0.0324 E-score
CGGCAGCC	-0.33 E-score
AGCCCCAA	-0.308 E-score
CCCGAAAA	-0.0778 E-score
AGAGCAGG	-0.156 E-score
ATGATCCC	0.00817 E-score
GGGCACCA	-0.229 E-score
TACAAGAA	0.205 E-score
GTACACCA	0.269 E-score
CATTGAGG	-0.107 E-score
AGGAGTAT	0.128 E-score

Sequence	binding signal
AGCAGCAA	-0.0912 E-score
ATAAATAA	0.329 E-score
AAGAACAA	0.00669 E-score
AACCGGCT	-0.126 E-score
CCCGACGA	-0.104 E-score
ATAAACAC	0.191 E-score
AGCTATAA	0.25 E-score
AACTAAAA	0.345 E-score
ACATTCGA	0.129 E-score
CCTGCACC	-0.351 E-score
ATTCTTTG	0.149 E-score
TCAGGCAA	-0.00625 E-score
AAAGTCCG	-0.15 E-score
CGACCTCC	-0.263 E-score
ACTTTCCC	0.0425 E-score
CGGGGTCC	-0.389 E-score
CCCCAGGA	-0.34 E-score
TATGCTCA	-0.122 E-score
CACAGGGC	-0.35 E-score
ACTGAACG	0.0514 E-score
CTGAACGA	-0.194 E-score
CCATGTAC	0.193 E-score
